Measured values published in the supplement of paper PMC4723716.
± gives the uncertainty stated by the source. In all, about 9,900 compounds were measured (“viability index relative to DMSO control”: median about 1, lowest 2% from about 0.85 on). The list shows a part of the results.

These compounds were tested on Plasmodium falciparum NF54 stage V gametocytes (assay: viability index relative to DMSO control (fraction); higher = less gametocyte killing). Conditions: 2.5 µM, library set: Broad Institute DOS, incubation time: 72 h.
In short: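 Viability index is the count of red-stained particles in a well divided by the plate mean of solvent-only wells. Particles of 20–70 µm2 were counted in one imaged field per well after one to two hours with 3 µl of 2.5 µM MitoTracker Red CMXRos and 0.13% saponin. Before staining, P. falciparum NF54 stage V gametocytes in serum-free medium (0.75% gametocytemia, 1.25% hematocrit, 10 µl, 1,536-well plates) were kept with compound at 2.5 µM for 72 hr at 37°C under low oxygen.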

| SMILES | viability index |
| --- | --- |
| CCN1[C@@H]2Cn3c(ccc(-c4ccncc4)c3=O)[C@H]1[C@@H](C(=O)NCCc1cn(C)cn1)[C@@H]2CO | 0.959 ± 0.073 |
| O=C(C[C@@H]1CC[C@H]2NC[C@@H](O)COC[C@@H]2O1)NCCN1CCCCC1 | 1.02 ± 0.059 |
| COc1ccc(NC(=O)N(C)C[C@H]2OCCCC[C@H](C)Oc3ccc(NC(=O)c4ccncc4)cc3C(=O)N([C@@H](C)CO)C[C@@H]2C)cc1 | 1.09 ± 0.078 |
| C/C=C/c1ccc([C@H]2[C@@H](CO)N3C(=O)CN(C(=O)c4ccncc4)C[C@@H]23)cc1 | 1.03 ± 0.092 |
| O=C(C[C@H]1CC[C@@H](NC(=O)Nc2ccc(C(F)(F)F)cc2)[C@@H](CO)O1)NCc1cccc(F)c1 | 0.908 ± 0.057 |
| COCC(=O)N1[C@@H](CO)[C@@H]2c3ccccc3N(C(=O)c3cccnc3)C[C@@H]21 | 0.998 ± 0.087 |
| COc1ccc2c3c([nH]c2c1)[C@H](CO)N(C[C@]31CCN(CC1)C(=O)c1ccccc1F)C(=O)Nc1ccc(F)cc1 | 0.961 ± 0.076 |
| O=C(C[C@H]1CC[C@@H](NC(=O)CN2CCOCC2)[C@@H](CO)O1)NC1CCC1 | 1.089 ± 0.0083 |
| OC[C@@H]1[C@H](c2ccc(C#Cc3ccccc3F)cc2)[C@@H]2CN(CC3CCOCC3)CCCCN12 | 1.029 ± 0.0035 |
| CN1C[C@H]2[C@@H](c3ccccc31)[C@@H](CO)N2C(=O)C1CCOCC1 | 0.97 ± 0.087 |
| COc1ccccc1NC(=O)N1CC(=O)N2[C@H](C1)[C@H](c1ccc(-c3cccc(C)c3)cc1)[C@@H]2CO | 1.04 ± 0.0015 |
| CN1c2ccc(Br)cc2[C@H]2[C@H](CCN2C(=O)C2CCC2)[C@H]1CO | 1.12 ± 0.064 |
| O=C(C[C@@H]1CC[C@@H]2[C@H](COC[C@H](O)CN2CCC(F)(F)F)O1)NCC1CC1 | 1.08 ± 0.02 |
| C[C@@H]1CN([C@H](C)CO)S(=O)(=O)c2ccc(-c3ccncc3)cc2O[C@H]1CN(C)S(C)(=O)=O | 0.899 ± 0.17 |
| C/C=C/c1ccc([C@H]2[C@@H]3CN(C(=O)Nc4ccccc4F)C[C@H]2N3)cc1 | 1.06 ± 0.034 |
| CO[C@@H]1CN(C)C(=O)c2ccc(NC(=O)c3cccc(F)c3)cc2OC[C@H](C)NC[C@H]1C | 1.14 ± 0.027 |
| O=C(C[C@H]1C[C@@H]2c3cc(NC(=O)Nc4ccccc4)ccc3O[C@@H]2[C@@H](CO)O1)NCc1ccccc1 | 1.019 ± 0.0055 |
| O=C(C[C@@H]1CC[C@H](NC(=O)c2ccc(F)cc2)[C@@H](CO)O1)NCCc1ccccc1 | 1.078 ± 0.0076 |
| CN(C)C(=O)c1cc2c(c(-c3cccc(C4=CCCCC4)c3)n1)[C@@H](CCO)N(S(C)(=O)=O)C2 | 1.06 ± 0.065 |
| O=C(C[C@@H]1C=C[C@H](NC(=O)c2ccncc2)[C@H](CO)O1)NCC1CC1 | 1.125 ± 0.0058 |
| CCCNC(=O)Nc1ccc2c(c1)C(=O)N(C)C[C@H](OC)[C@H](C)CN(C)[C@H](C)CO2 | 1.12 ± 0.072 |
| CCC(=O)N1[C@H](C(=O)N(C)C)[C@@H](CO)[C@@H]2Cn3c(ccc(-c4ccc(F)cc4)c3=O)[C@@H]21 | 0.996 ± 0.046 |
| C[C@@H]1CN([C@@H](C)CO)C(=O)c2cc(-c3cccc(C#N)c3)cnc2O[C@@H]1CN(C)C(=O)C1CCOCC1 | 1.06 ± 0.035 |

| SMILES | viability index |
| --- | --- |
| COc1ccccc1CN1C[C@@H]2N[C@H](C1)[C@H]2c1ccc(-c2ccncc2)cc1 | 1.12 ± 0.11 |
| C[C@H]1CN([C@@H](C)CO)C(=O)c2cc(-c3ccc(F)cc3)cnc2O[C@@H]1CN(C)S(C)(=O)=O | 1.05 ± 0.02 |
| O=C(C[C@@H]1C[C@@H]2c3cc(NC(=O)Nc4ccccc4)ccc3O[C@@H]2[C@@H](CO)O1)NCc1ccccc1 | 1.015 ± 0.0017 |
| CO[C@@H]1CN(C)C(=O)c2cc(NC(=O)C3CCCCC3)ccc2OC[C@H](C)N(Cc2cccnc2)C[C@H]1C | 1.12 ± 0.073 |
| CN1C(=O)c2cc(NS(C)(=O)=O)ccc2OC[C@H]2O[C@H](CC(=O)NCc3ccccc3)CC[C@H]21 | 1.12 ± 0.043 |
| CO[C@H]1CN(C)C(=O)c2ccc(NC(C)=O)cc2OC[C@@H](C)N(Cc2cccc(F)c2)C[C@H]1C | 1.11 ± 0.017 |
| COc1ccccc1-c1ccc2c(c1)[C@H]1[C@H](CCN1C(=O)CN1CCOCC1)[C@H](CO)N2C | 1.11 ± 0.095 |
| CCCNC(=O)N1CC(=O)N2[C@H](CO)[C@@H](c3ccc(-c4ccc(F)cc4)cc3)[C@H]2C1 | 0.946 ± 0.012 |
| O=C([C@H]1[C@H](CO)[C@H]2Cn3c(ccc(C4=CCCC4)c3=O)[C@@H]1N2C(=O)c1cccnc1)N1CCOCC1 | 1.07 ± 0.068 |
| CO[C@H]1CN(C)C(=O)c2ccc(NC(=O)Nc3c(C)noc3C)cc2OC[C@H](C)N(CCC(F)(F)F)C[C@H]1C | 0.984 ± 0.035 |
| Cc1ccc(S(=O)(=O)N2CC[C@H]3[C@H](CO)Nc4ccc(-c5cccc(C(=O)N(C)C)c5)cc4[C@H]32)cc1 | 0.7 ± 0.018 |
| Cc1ccccc1-c1ccc2c(c1)O[C@@H](CN(C)C(=O)Nc1ccc(C(F)(F)F)cc1)[C@@H](C)CN([C@H](C)CO)S2(=O)=O | 0.97 ± 0.026 |
| CC(C)COC(=O)N(C)C[C@H]1OCc2ccccc2-c2ccccc2C(=O)N([C@@H](C)CO)C[C@H]1C | 1.03 ± 0.21 |
| COc1cccc(CN2[C@@H](CO)[C@H](c3ccccc3)C23CN(C(=O)C2CCCCC2)C3)c1 | 1.06 ± 0.057 |
| Cc1noc(C)c1NC(=O)N(C)C[C@H]1OCc2cnnn2CCCC(=O)N([C@@H](C)CO)C[C@@H]1C | 1.09 ± 0.028 |
| C[C@@H]1CN([C@@H](C)CO)C(=O)CCCn2nncc2CO[C@H]1CN(C)Cc1ccccc1C(=O)O | 1.01 ± 0.073 |
| CCS(=O)(=O)N1CC(=O)N2[C@H](CO)[C@@H](c3ccc(C4=CCCCC4)cc3)[C@@H]2C1 | 1.1 ± 0.046 |
| CO[C@@H]1CN(C)C(=O)c2ccc(NS(C)(=O)=O)cc2OC[C@H](C)N(C(=O)CN(C)C)C[C@@H]1C | 0.99 ± 0.025 |
| COc1ccc2c3c([C@H](CO)N(C[C@]33CCN(Cc4ccccn4)CC3)C(=O)Nc3ccc(F)cc3)n(C)c2c1 | 1.02 ± 0.018 |
| COc1ccccc1CN1[C@H](CO)[C@H]2c3ccccc3N(C(=O)C3CCOCC3)C[C@H]21 | 1 ± 0.06 |
| CCS(=O)(=O)Nc1ccc2c(c1)C(=O)N(C)[C@@H]1CC[C@H](CC(=O)N[C@H]3CCN(Cc4ccccc4)C3)O[C@H]1CO2 | 1.09 ± 0.15 |
| O=C(c1cnccn1)N1CC(=O)N2[C@H](CO)[C@H](c3ccc(/C=C/c4ccccc4)cc3)[C@@H]2C1 | 1.06 ± 0.063 |
| COc1ccc([C@@H]2C/C=C\C[C@@H](c3cccc(Cl)c3)NC(=O)[C@@H](c3ccccc3)CC(=O)N2)c(OC)c1 | 1.03 ± 0.054 |
